Data from PubChem BioAssay AID360 (National Center for Advancing Translational Sciences (NCATS), 2006).
The whole screen tested about 48,000 compounds, of which about 550 (1.1%) were called active. Inconclusive results (about 4%) are left out. Rule as the data show it: active = potency below about 15 µM; inconclusive = mostly about 16 µM to 33 µM; inactive = weaker than that. The list shows a part of the results.

What follows are compounds tested against Lysosomal acid glucosylceramidase (Homo sapiens) (UniProt P04062) (assay: Glucocerebrosidase). Conditions: purified enzyme, resorufin glucoside fluorescence (screen aimed at inhibitors), 20 min.
Excerpt: NCGC Assay Overview: Beta-glucocerebrosidase catalyzes the hydrolysis of beta-glucocerebroside to glucose and ceramide. The inherited deficiency of beta-glucocerebrosidase results in Gaucher disease, which is characterized by a wide variety of symptoms including hepatosplenomegaly, anemia, thrombocytopenia, bony lesions and bone marrow infiltration with characteristic storage cells, known as Gaucher cells. There are also forms of the disorder affecting the central nervous system. Patients with the same genotypes can manifest with diverse clinical presentations and it is believed that improper folding and trafficking of beta-glucocerbrosidase may contribute to the phenotypes observed. Low molecular weight molecules, acting as chaperones, may potentially restore trafficking of misfolded beta-glucocerebrosidase from the endoplasmic reticulum to the lysosomes, thereby enhancing functional lysosomal beta-glucocerebrosidase activity. Using normal beta-glucocerebrosidase, an assay was developed to screen for small molecule inhibitors that could potentially act as molecular chaperones on the mutant forms [developed with NIH investigator Dr. Ellen Sidransky's laboratory]. Two pro-fluorescent substrates were chosen for two screens against a small molecule library. One beta-glucocerebrosidase assay used Resorufin beta-D-Glucopyranoside (Marker Gene Technology Inc.), generating a red fluorescent product. The second assay used Fluorescein di-beta-D-Glucopyranoside, generating a blue fluorescent product. […] The IC50 values of Conduritol B Epoxide, a known glucocerebrosidase inhibitor, were determined to be 87.5 uM and 117 uM, respectively. The use of two difference pro-fluorescent substrates in the screens helped to eliminate false positives. All compounds were screened in a titration series resulting in AC50s (e.g., IC50s or EC50s).
NCGC Assay Protocol Summary: Both enzyme and substrate were diluted in buffer composed of 50mM citric acid/KH2PO4, 10mM sodium taurocholate and 0.01% tween-20 at pH 5.9. The final concentration of the enzyme was 0.2 nM in both assays. The compound library was titrated in 7 to 15 concentrations for the primary screens with a final concentration ranging from 0.6 nM to 50 uM. This particular assay protocol is for the "red" substrate, and it was performed in 1536-well plate format as follows: Red fluorescence substrate assay: 2 uL enzyme 23 nL compound 1 uL substrate (final concentration of 30 uM) Incubate at room temperature (RT) for 20 minutes Read the plate in Viewlux plate reader (Ex=548(7) and Em=600(10)).
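Also: the screen sought inhibitors.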
Potency is read from the fitted curve at half-maximal effect.

Chain of UniProt P04062 (P04062 whole entry, looked up): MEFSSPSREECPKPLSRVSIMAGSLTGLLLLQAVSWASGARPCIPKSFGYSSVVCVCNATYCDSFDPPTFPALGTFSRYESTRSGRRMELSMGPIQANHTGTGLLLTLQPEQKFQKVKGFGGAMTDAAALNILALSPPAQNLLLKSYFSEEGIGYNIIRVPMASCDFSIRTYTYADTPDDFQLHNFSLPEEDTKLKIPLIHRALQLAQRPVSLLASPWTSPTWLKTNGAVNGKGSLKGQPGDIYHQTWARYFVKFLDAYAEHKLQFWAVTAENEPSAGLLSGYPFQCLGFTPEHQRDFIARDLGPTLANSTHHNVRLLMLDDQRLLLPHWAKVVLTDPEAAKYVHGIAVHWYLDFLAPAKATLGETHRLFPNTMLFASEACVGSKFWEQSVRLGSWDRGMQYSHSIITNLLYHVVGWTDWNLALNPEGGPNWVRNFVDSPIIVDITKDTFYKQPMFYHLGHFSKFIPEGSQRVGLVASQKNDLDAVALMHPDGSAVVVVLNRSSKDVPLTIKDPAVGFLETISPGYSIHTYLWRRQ

Structure (SMILES) | Potency
Cc1c(C(=O)N2CCC3(CC2)OCCO3)oc2ccccc12 | inactive: > 76.9 µM
O=C(c1sc2ccccc2c1Cl)N1CCC2(CC1)OCCO2 | inactive: > 76.9 µM
CCCCCCn1c(=O)c(C(=O)Nc2c(C)n(C)n(-c3ccccc3)c2=O)c(O)c2ccccc21 | inactive: > 76.9 µM
c1ccc(C(OCCN2CCNCC2)c2ccccc2)cc1 | inactive: > 76.9 µM
Cn1c(=O)cc(OCC(=O)N2CCC3(CC2)OCCO3)c2ccccc21 | inactive: > 76.9 µM
CC(=NCc1ccco1)c1c(O)n(C)c(=O)n(C)c1=O | inactive: > 76.9 µM
FC(F)(F)/C(=N\P(=S)(N1CCOCC1)N1CCOCC1)N1CCOCC1 | inactive: > 76.9 µM
CC(=NCCCN1CCCCC1)c1c(O)n(Cc2ccccc2)c(=O)[nH]c1=O | inactive: > 76.9 µM
O=P(O)(O)Cc1ccccc1OP(=O)(c1ccccc1)c1ccccc1 | inactive: > 76.9 µM
Cc1cccn2c(NCC3CCCO3)c(C(C)C)nc12 (stereo unspecified) | inactive: > 76.9 µM
O=C(Cc1ccccc1)N1CCN(Cc2c[nH]c3ccccc23)CC1 | inactive: > 76.9 µM
Cc1ccc(-n2c(O)c(C=NC3CCCCC3N)c(=O)[nH]c2=O)cc1C (stereo unspecified) | inactive: > 76.9 µM
Cc1ccc(S(=O)(=O)N2CCCC(C(=O)N3CCC4(CC3)OCCO4)C2)cc1 (stereo unspecified) | inactive: > 76.9 µM
O=C1CCCC2C3CCCN4CCCC(CN12)C34 (stereo unspecified) | inactive: > 76.9 µM
CC(C)CC(NC(=O)C1CCCCC1)C(=O)N1CCC2(CC1)OCCO2 (stereo unspecified) | inactive: > 76.9 µM
Cc1cc2c(s1)NC(=O)CN=C2c1cccs1 | inactive: > 76.9 µM
CC(C(N)=O)N1CC(c2ccc(Cl)cc2)CC1=O (stereo unspecified) | inactive: > 76.9 µM
CCOc1ccccc1-n1c(O)c(C=NCc2ccc3c(c2)OCO3)c(=O)[nH]c1=O | inactive: > 76.9 µM
CC(=NCc1cccnc1)c1c(O)n(Cc2ccccc2)c(=O)[nH]c1=O | inactive: > 76.9 µM
COC(=O)c1ccccc1OP1(=O)COc2ccccc2OC1 | inactive: > 76.9 µM
CC(=O)C1C(=O)NC23CCCCC2C1c1ccccc1O3 (stereo unspecified) | inactive: > 76.9 µM
CC1=C(C(=O)Nc2ccccc2)SCCO1 | inactive: > 76.9 µM
Cc1ccc(N2C(=O)NC(=O)C3(Cc4ccccc4N4CCCC43)C2=O)cc1 (stereo unspecified) | inactive: > 76.9 µM

Structure (SMILES) | Potency
CCOC(=O)C1=C(C)N(C)C2(C)CC1c1ccccc1O2 (stereo unspecified) | inactive: > 76.9 µM
CC(=NC1CCN(Cc2ccccc2)CC1)c1c(O)[nH]c(=O)[nH]c1=O | inactive: > 76.9 µM
O=C(c1ccc2nc(-c3ccco3)c(-c3ccco3)nc2c1)N1CCC2(CC1)OCCO2 | inactive: > 76.9 µM
Cc1oc(-c2ccccc2F)nc1CS(=O)CC(=O)N1CCC2(CC1)OCCO2 (stereo unspecified) | inactive: > 76.9 µM
C=CCOC(=O)C1=C(C)OC(N)=C(C(=O)OCC)C12C(=O)N(CC(N)=O)c1ccccc12 (stereo unspecified) | inactive: > 76.9 µM
COc1ccc(CCN(C)Cc2ccncc2)cc1OC | inactive: > 76.9 µM
c1cncc(CNC2=NCCC2)c1 | inactive: > 76.9 µM
Cc1oc2ccc(OC(=O)N(C)C)cc2c1C(=O)OC(C)C | inactive: > 76.9 µM
CCOC(=O)C(O)(c1ccc(N(CC)S(=O)(=O)c2ccccc2)cc1)C(F)(F)F (stereo unspecified) | inactive
C=CCn1c(O)c(C(C)=NCCCO)c(=O)[nH]c1=O | inactive: > 76.9 µM
CCOC(=O)C(O)(c1ccc(NC(=O)c2ccco2)c(OC)c1)C(F)(F)F (stereo unspecified) | inactive: > 76.9 µM
Cc1cccc(C2=NCC(=O)N(CC(=O)NCc3ccco3)c3sc4c(c32)CCCC4)c1 | inactive: > 76.9 µM
O=C(c1cc(-c2cccnc2)nc2ccc(Br)cc12)N1CCC2(CC1)OCCO2 | inactive: > 76.9 µM
Cc1cc(C)c(C2=NOC(O)(C(F)(F)F)C2)c(=O)[nH]1 (stereo unspecified) | inactive: > 76.9 µM
Cc1ccc(CS(=O)(=O)Cc2ccc(C(=O)N3CCC4(CC3)OCCO4)o2)cc1 | inactive: > 76.9 µM
Cc1ccc(CN2C(=O)NC(=O)C3(Cc4c(nc5ccccn5c4=O)N4CCCCCC43)C2=O)cc1 (stereo unspecified) | inactive: > 76.9 µM
Nc1nnc(CCN2CCCCC2)s1 | inactive: > 76.9 µM
CC(C)=CCC12CN3CCN(CC(C3)C1=O)C2 | inactive: > 76.9 µM
CCCCN1C(=O)NC(=O)C2(Cc3ccccc3N3CCOCC32)C1=O (stereo unspecified) | inactive: > 76.9 µM
CN(C)P1(N(C)C)=Nc2c(c(N)nn2C)C(c2ccccc2)=N1 | inactive: > 76.9 µM
CCOC(=O)c1c(C)c(P(=S)(N2CCOCC2)N2CCOCC2)n(C)c1C | inactive: > 76.9 µM
CC(=O)c1c(C)n(CCCOC(C)C)c2ccc(O)cc12 | inactive: > 76.9 µM
CCC1(CC)C(=O)NC(=Nc2cccc(C(F)(F)F)c2)NC1=O | inactive: > 76.9 µM

Structure (SMILES) | Potency
Cc1nc2ccccc2c(=O)n1-c1cccc(O)c1 | inactive: > 76.9 µM
Cn1cccc1CNCCc1ccccc1F | inactive: > 76.9 µM
CCOC(=O)C1=C(N)OC2=C(C(=O)CCC2)C12C(=O)N1c3c(ccc(C)c32)C(C)=CC1(C)C (stereo unspecified) | inactive: > 76.9 µM
CCCCn1c(O)c(C(CC)=NCCN2CCCCC2)c(=O)[nH]c1=O | inactive: > 76.9 µM
O=c1c2cc(Cl)cc(Cl)c2nc(CN2CCOCC2)n1-c1ccccc1F | inactive: > 76.9 µM
CCCCn1c(O)c(C=NCCCn2ccnc2)c(=O)[nH]c1=O | inactive: > 76.9 µM
C=CCN1C(=O)C2(C(C(=O)OCC)=C(N)Oc3ccccc32)c2c1c1ccccc1oc2=O (stereo unspecified) | inactive: > 76.9 µM
COc1ccc(C(=O)N2CCCC2=O)cc1 | inactive: > 76.9 µM
CCCCn1c(=O)c(C(=O)Nc2nc3ccccc3[nH]2)c(O)c2ccccc21 | inactive: > 76.9 µM
CCCn1ncc(C(=O)O)c1C | inactive: > 76.9 µM
CN(C)C(=O)Nc1cccc(OC(=O)N(C)C)c1 | inactive: > 76.9 µM
CC(C(=O)N1CCC2(CC1)OCCO2)C1Sc2ccccc2NC1=O (stereo unspecified) | inactive: > 76.9 µM
COc1ccc(N2CCN(C(CNC(=O)Oc3ccccc3)c3cccnc3)CC2)cc1 (stereo unspecified) | inactive: > 76.9 µM
Cn1c(O)c(/C=N/c2ccccn2)c(=O)n(C)c1=O | inactive: > 76.9 µM
CCN(CC)CCCN=C(C)c1c(O)n(-c2ccc(C)cc2)c(=O)[nH]c1=O | inactive: > 76.9 µM
Cc1cnn(C2CCN(C)CC2)c1N | inactive: > 76.9 µM
COc1ccc(Cn2c(N)c(C(=O)NCc3ccco3)c3nc4ccccc4nc32)cc1 | inactive: > 76.9 µM
CC(C)CCNC(=O)c1c(N)n(CC2CCCO2)c2nc3ccccc3nc12 (stereo unspecified) | inactive: > 76.9 µM
Clc1ccc2c(N3CCNCC3)ccnc2c1 | inactive: > 76.9 µM
Cc1ccc2c(c1)C(c1ccccc1)NCC(=O)N2 (stereo unspecified) | inactive: > 76.9 µM
CCOC(=O)C1=C(C)OC(N)=C(C(=O)OCC)C12C(=O)Nc1ccc(Br)cc12 (stereo unspecified) | inactive: > 76.9 µM
O=c1[nH]c(=O)n(-c2ccc(F)cc2)c(O)c1C=Nc1ccccc1N1CCCC1 | inactive: > 76.9 µM
COc1ccccc1N1CCN(Cc2cccc(OC)c2O)CC1 | inactive: > 76.9 µM

Structure (SMILES) | Potency
CC(c1ccccc1)n1cncc1C(=O)N1CCCC1=O (stereo unspecified) | inactive: > 76.9 µM
Nc1c(C(=O)NCCN2CCOCC2)c2nc3ccccc3nc2n1Cc1ccco1 | inactive: > 76.9 µM
CNC(=O)ON(C(=O)NC)C1N(C)C(=S)SC1(C)C (stereo unspecified) | inactive: > 76.9 µM
CC(=NCCCO)c1c(O)n(Cc2ccccc2)c(=O)[nH]c1=O | inactive: > 76.9 µM
COc1ccc(P2(=O)Nc3ccccc3N2)cc1 | inactive: > 76.9 µM
Cc1ccc2nc(-c3ccncc3)cc(C(=O)N3CCC4(CC3)OCCO4)c2c1 | inactive: > 76.9 µM
CC(=O)c1c(C)n(CC2CCCO2)c2ccc(O)cc12 (stereo unspecified) | inactive: > 76.9 µM
Cc1ccc(CCN2CC(C(=O)N3CCC4(CC3)OCCO4)CC2=O)cc1 (stereo unspecified) | inactive: > 76.9 µM
CCC(C(=O)N1CCC2(CC1)OCCO2)c1ccccc1 (stereo unspecified) | inactive: > 76.9 µM
CC(=O)Nc1ccccc1OP1(=O)COc2ccccc2OC1 | inactive: > 76.9 µM
CN(CC1COc2ccccc2O1)c1nc(-c2cccnc2)nc2ccccc12 (stereo unspecified) | inactive: > 76.9 µM
O=C(CCCOc1ccc(Cl)cc1Cl)N1CCC2(CC1)OCCO2 | inactive: > 76.9 µM
CN1C(=O)N(C)C(=O)C2(Cc3ccccc3N3CCOCC32)C1=O (stereo unspecified) | inactive: > 76.9 µM
Cc1ccccc1NC1=NCCCS1 | inactive: > 76.9 µM
Cc1ccc2c(c1)C1CN(C)CCC1N2C(=O)COc1ccc(S(=O)(=O)N2CCOCC2)cc1 (stereo unspecified) | inactive: > 76.9 µM
Cc1cc(Cl)ccc1OCC(=O)O | inactive: > 76.9 µM
COC(=O)c1cc(C(O)(C(=O)OC)C(F)(F)F)c(/N=C/N(C)C)s1 (stereo unspecified) | inactive: > 76.9 µM
CCC(=Nc1ccc(OC)cc1OC)c1c(O)[nH]c(=O)[nH]c1=O | inactive: > 76.9 µM
O=C(Cn1ncc2c3ccccc3n(Cc3ccc(F)cc3)c2c1=O)N1CCC2(CC1)OCCO2 | inactive: > 76.9 µM
CCN(CC)CCCN=Cc1c(O)n(CCc2ccc(OC)c(OC)c2)c(=O)[nH]c1=O | inactive: > 76.9 µM
O=C(O)c1nonc1-c1nonc1C(=O)O | inactive: > 76.9 µM
CCC(=NCc1ccco1)c1c(O)[nH]c(=O)[nH]c1=O | inactive: > 76.9 µM
